Experimental data: publication PMC4336329 (PLoS ONE, 2015)
Hit rate of the full screen: of about 310,000 compounds, about 2,200 (0.71%) showed an effect of 50% or more. Effects have a minus sign here. Some of the results follow.

Target: human ether-à-go-go-related gene (hERG) potassium channel (human, UniProt Q12809)
Assay: primary screen, population patch clamp on CHO cells stably expressing hERG

Sequence of human ether-à-go-go-related gene (hERG) potassium channel (Q12809 whole entry, looked up): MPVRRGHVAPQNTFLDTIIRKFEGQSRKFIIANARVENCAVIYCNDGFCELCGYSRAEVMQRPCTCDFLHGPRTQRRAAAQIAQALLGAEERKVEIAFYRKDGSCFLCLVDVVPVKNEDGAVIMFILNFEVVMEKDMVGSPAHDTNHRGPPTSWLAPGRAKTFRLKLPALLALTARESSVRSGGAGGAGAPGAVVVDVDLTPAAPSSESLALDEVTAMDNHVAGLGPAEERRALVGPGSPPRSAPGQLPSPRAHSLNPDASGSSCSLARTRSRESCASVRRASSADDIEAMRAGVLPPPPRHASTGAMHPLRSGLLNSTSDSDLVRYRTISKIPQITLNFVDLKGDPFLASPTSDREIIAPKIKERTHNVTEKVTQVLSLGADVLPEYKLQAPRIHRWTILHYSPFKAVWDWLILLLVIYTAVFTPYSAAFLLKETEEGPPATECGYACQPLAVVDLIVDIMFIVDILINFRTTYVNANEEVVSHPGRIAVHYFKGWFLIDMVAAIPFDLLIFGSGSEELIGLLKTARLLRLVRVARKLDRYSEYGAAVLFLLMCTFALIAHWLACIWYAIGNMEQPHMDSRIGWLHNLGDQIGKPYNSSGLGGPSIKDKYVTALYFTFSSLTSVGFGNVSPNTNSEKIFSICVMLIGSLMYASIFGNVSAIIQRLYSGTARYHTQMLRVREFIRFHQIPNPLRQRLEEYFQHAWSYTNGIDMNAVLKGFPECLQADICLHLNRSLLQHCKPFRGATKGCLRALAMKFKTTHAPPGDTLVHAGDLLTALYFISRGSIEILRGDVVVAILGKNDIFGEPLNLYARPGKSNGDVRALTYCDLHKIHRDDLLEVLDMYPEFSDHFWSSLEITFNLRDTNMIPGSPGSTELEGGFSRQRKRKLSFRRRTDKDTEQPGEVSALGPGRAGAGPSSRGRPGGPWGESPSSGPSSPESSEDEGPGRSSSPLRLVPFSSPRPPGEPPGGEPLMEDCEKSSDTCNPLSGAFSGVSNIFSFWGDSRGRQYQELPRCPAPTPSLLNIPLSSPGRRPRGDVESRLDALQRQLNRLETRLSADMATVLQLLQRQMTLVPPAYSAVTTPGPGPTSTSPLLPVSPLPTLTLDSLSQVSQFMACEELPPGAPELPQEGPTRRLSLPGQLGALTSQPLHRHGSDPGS

Structure (SMILES)	hERG current change (%, negative = inhibition) at 1uM [%]
CN(CC(=O)Nc1ccc(Cl)c(C(F)(F)F)c1)C(=O)c1cccc2cccnc12	1.14
Cc1nc(COc2cc3oc(=O)cc(C)c3cc2Cl)cs1	14.9
COC(=O)c1c(C(=O)OC)c(-c2ccc(Cl)c(Cl)c2)n2c1CCC2	15.1
O=C(CSc1nc2ccccc2c(=O)n1-c1ccccc1)N1CCc2ccccc21	4.49
CN(C)C=C1C(=O)N(C2CCCCC2)C(=O)N(C2CCCCC2)C1=O	5.98
CN(C(=O)c1ccco1)c1nnc(-c2ccc(F)cc2)s1	16.1
Cc1[nH]n(-c2ccccc2)c(=O)c1C(c1cccc([N+](=O)[O-])c1O)c1c(C)[nH]n(-c2ccccc2)c1=O	-2.66
Cc1cc(O)c(NC(=O)c2ccc(Br)o2)cc1C	1.84
COc1ccc(C(=O)NNC(=O)CSc2nnc(-c3cccnc3)n2C)cc1	13.5
O=C(c1ccc(Cl)cc1)N1C2C=CC(C2)C1(C(F)(F)F)C(F)(F)F (stereo not shown)	18.1
O=C(O)CSc1cccnc1Sc1ccc(Cl)cc1	3.81
Cn1c(S(=O)(=O)Cc2ccc(Cl)cc2)nc2ccccc21	3.17
Cc1cc(NC(=O)c2ccc(NC(=O)C(C)C)cc2)no1	2.49
COC(=O)C1=C(c2cccc(C#N)c2)C[C@@H]2CC[C@H]1N2C(=O)NC1Cc2ccccc2C1	15
CCOc1ccccc1NC(=O)CN(C)S(=O)(=O)c1ccc(OC)c(C)c1	-1.26
N#Cc1ccccc1S(=O)(=O)N1CCN(c2ccc(S(=O)(=O)N3CCOCC3)cn2)CC1	-1.92
COc1ccc(C(=O)NCCC2=CCCCC2)cc1OC	8.68
COc1ccccc1CNS(=O)(=O)c1cc2c3c(c1)CCC(=O)N3CCC2	7.42
Cc1cccc2sc(N(CCCN(C)C)C(=O)CCc3ccccc3)nc12.Cl	-5.32
CC1(C)CSC(=NCCc2ccccc2)N1	22.1
Cn1cccc1C(=O)NNC(=O)COc1ccc(C#N)cc1	2.22
O=C(Nc1n[nH]c(C2CCCCC2)n1)C1CCCCC1	9.42
Cc1ccc(C)c(OCc2cc(C(=O)N3CCOCC3)no2)c1	9.42
CC(C)(C)NC(=O)C1CCN(C(=O)c2ccco2)CC1	11.6
Cc1ccc(C(=O)NCCc2nnc3ccc(NCCCN4CCOCC4)nn23)cc1	11.1
